The record followed here is article PMC4336329 (PLoS ONE, 2015).

SMILES strings stand for the structures. In all, about 310,000 compounds went through this assay and about 14,000 (4.5%) showed an effect of 50% or more. Effects have a minus sign here. This is one part of the list.
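Note: peak tail current of the secondary pulse compared with the same well before compound.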

Sequence of human ether-à-go-go-related gene (hERG) potassium channel (Q12809 whole entry, looked up): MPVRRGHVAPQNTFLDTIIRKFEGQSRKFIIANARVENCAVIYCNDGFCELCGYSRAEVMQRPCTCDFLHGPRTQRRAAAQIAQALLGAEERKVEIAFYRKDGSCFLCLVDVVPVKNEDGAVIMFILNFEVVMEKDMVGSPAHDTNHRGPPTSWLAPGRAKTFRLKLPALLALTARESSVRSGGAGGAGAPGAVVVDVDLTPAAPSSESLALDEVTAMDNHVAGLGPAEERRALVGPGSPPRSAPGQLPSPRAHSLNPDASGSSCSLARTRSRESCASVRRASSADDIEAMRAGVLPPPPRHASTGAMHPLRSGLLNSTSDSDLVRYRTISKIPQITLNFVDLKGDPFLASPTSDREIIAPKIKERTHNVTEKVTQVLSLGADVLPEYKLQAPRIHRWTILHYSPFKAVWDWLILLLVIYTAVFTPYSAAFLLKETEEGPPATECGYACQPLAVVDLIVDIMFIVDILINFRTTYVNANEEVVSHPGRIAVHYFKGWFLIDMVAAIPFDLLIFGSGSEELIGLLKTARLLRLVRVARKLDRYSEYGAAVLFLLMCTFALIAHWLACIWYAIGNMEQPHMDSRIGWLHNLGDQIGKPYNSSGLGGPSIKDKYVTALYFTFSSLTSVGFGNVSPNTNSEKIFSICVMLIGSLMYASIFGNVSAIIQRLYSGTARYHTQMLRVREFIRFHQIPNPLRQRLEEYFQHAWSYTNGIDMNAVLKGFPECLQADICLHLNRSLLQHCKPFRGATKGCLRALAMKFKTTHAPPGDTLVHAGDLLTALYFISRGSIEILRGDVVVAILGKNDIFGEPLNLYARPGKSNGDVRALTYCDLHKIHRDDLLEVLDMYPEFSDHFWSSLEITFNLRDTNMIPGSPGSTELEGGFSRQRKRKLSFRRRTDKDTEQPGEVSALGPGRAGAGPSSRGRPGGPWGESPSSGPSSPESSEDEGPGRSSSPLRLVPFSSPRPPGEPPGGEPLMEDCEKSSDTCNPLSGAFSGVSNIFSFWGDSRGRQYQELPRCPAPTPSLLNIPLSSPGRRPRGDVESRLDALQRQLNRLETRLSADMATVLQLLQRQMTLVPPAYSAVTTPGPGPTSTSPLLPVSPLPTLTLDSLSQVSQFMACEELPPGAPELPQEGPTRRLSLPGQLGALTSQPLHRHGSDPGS

The test has as its target human ether-à-go-go-related gene (hERG) potassium channel (human, UniProt Q12809). The experiment in a line: primary screen, population patch clamp on CHO cells stably expressing hERG.
On to `O=C(c1ccc(Br)o1)N1CCN(c2ccccc2F)CC1`, for which the “hERG current change (%, negative = inhibition) at 10uM” value is reported as -4.94%.
Consider `COc1ccc(/C=N/n2cnc3scc(-c4cccs4)c3c2=O)cc1OC`, for which the “hERG current change (%, negative = inhibition) at 10uM” value is -2.04%.
On to `CCOc1ccc2nc(NCCO)[nH]c2c1`, for which the “hERG current change (%, negative = inhibition) at 10uM” value was 5.38%.
As for `COc1ccc(NC(=S)N2C3CCC2CC(NC(=O)NC24CC5CC(CC(C5)C2)C4)C3)c(OC)c1` (stereo not shown), the “hERG current change (%, negative = inhibition) at 10uM” value amounted to 6.69%.
As for `CCCN1Cc2cccc(C(=O)NCc3ccccc3)c2C1=O`, the figure is -34.9%; as for `COc1ccccc1C(CC(=O)Nc1ccc(C)c(C)c1)c1ccc(OC(C)C)cc1` (stereo not shown), 10.2%; as for `CN(C)S(=O)(=O)c1ccc(N2CCCC2)c(C(=O)NNC(=O)COc2ccccc2Cl)c1`, -30.3%.
As for `COc1ccc(CN(CC2CCC(C(=O)O)CC2)C(=S)Nc2cc(C)cc(C)c2)cc1` (stereo not shown), the figure is 19.6%; as for `N#CCCN(C(=O)COC(=O)c1ccc2c(c1)OCO2)c1ccccc1`, -17%.
With `Cc1cccc(C)c1NC(=O)CN(C)C(=O)CN1C(=O)NC(C)(C)C1=O`, the “hERG current change (%, negative = inhibition) at 10uM” value is given as 5.63%.
As for `COc1cccc(CNc2nc3ccc(C)cc3n3cnnc23)c1`, the figure is 4.33%.
On to `c1ccc2c(c1)CCc1ccccc1C2=C1CCNCC1`, for which the “hERG current change (%, negative = inhibition) at 10uM” value was 8.87%.
As for `C=C(C)CN(CC)Cc1c(C(=O)N(C)CCCC)nc2ccccn12`, the figure is -20.7%; as for `Cc1ccc(C)c(-n2c(SCC(=O)Nc3nonc3C)nnc2-c2ccoc2C)c1`, -61.2%; as for `Cc1ccc2nc(N(CCCN(C)C)C(=O)CCc3ccccc3)sc2c1.Cl`, -66%.
As for `COc1cccc(CNCCc2c[nH]c3ccccc23)c1OCc1ccccc1F.Cl`, the figure is -55.8%.
`O=C(CCCNS(=O)(=O)c1cccs1)N1CCc2ccccc2C1`: the “hERG current change (%, negative = inhibition) at 10uM” value is reported as -18.4%.
As for `CN1CC(=O)N/C1=N\C(=O)Nc1ccc2c(c1)N(C)C(=O)CS2`, the figure is -19.7%.
As for `COCc1c(C(=O)N/N=C\c2cccnc2)nnn1-c1nonc1N`, the figure is 5.65%.
As for `Cc1cccc(C)c1NC(=O)N1CC=CCC1`, the figure is 12.8%.
On to `COc1ccc(-c2[nH]ncc2-c2cscn2)c(O)c1`, for which the “hERG current change (%, negative = inhibition) at 10uM” value worked out at 11.5%.
As for `COc1ccc(NC(=S)Nc2cnc3ccccc3c2)c(OC)c1`, the figure is -0.946%.
As for `CCCc1[nH]n(-c2ccc(F)cc2)c(=O)c1C=Nc1ccc(C)cc1`, the figure is 4.95%; as for `COC(=O)Cc1csc(Nc2ccccc2)n1`, -4.33%; as for `COc1ccc(OC)c(C2C(C#N)=C(N)Oc3c2c(C)nn3-c2cccc(Cl)c2)c1` (stereo not shown), 1.48%.
As for `Cc1nccn1-c1ncnc2sc3c(c12)CCCC3`, the figure is -8.25%; as for `Cn1nnnc1SCC(=O)Nc1nc2ccccc2s1`, 13.1%; as for `O=C(Cn1cc(SCc2ccc(F)cc2)c2ccccc21)N1CCOCC1`, -29.9%.
Regarding `Cc1cc(C(=O)Nc2ccc(N3CCOCC3)c(Cl)c2)c(C)o1`, the “hERG current change (%, negative = inhibition) at 10uM” value was 1.11%.
As for `C=C(C)C(=O)Nc1cccc(C2=NOC3(C2)C[C@@H](C(N)=O)N(C(=O)/C=C/C=C/C)C3)c1` (stereo partly shown), the figure is -1.74%; as for `Cn1cnc([N+](=O)[O-])c1NCc1ccccc1`, 10.3%.
Consider `CC(OC(=O)C1CCN(c2ccc(C(F)(F)F)cn2)CC1)C(=O)Nc1ccc(S(N)(=O)=O)cc1` (stereo not shown), for which the “hERG current change (%, negative = inhibition) at 10uM” value is given as 14.2%.
As to `c1c2c(cc3sc(N4CCCCC4)nc13)OCO2`, the “hERG current change (%, negative = inhibition) at 10uM” value is listed as 11.3%.
As for `O=S(=O)(NCC(c1cccnc1)N1CCN(c2ccc(F)cc2)CC1)c1cc(F)ccc1F` (stereo not shown), the figure is -65.8%; as for `CS/C(=N\NC(N)=O)c1ccccc1`, -8.24%.
As for `Cc1ccc2c(=O)cc(C(F)F)oc2c1`, the figure is -4.38%; as for `O=C(Oc1ccc2c(c1)O/C(=C\c1ccncc1)C2=O)c1ccccc1`, 4.73%.
As for `Cc1nn(CCCC(=O)NCCc2ccc(Cl)cc2)c(=O)c2nn(-c3ccccc3)c(C)c12`, the figure is 12.2%; as for `C=CCC(=O)N1CCCC(CO)(Cc2ccc(F)cc2F)C1` (stereo not shown), 0.892%.
For `Cc1cc(=O)n2nc(N3CCCC(C(=O)NC4CCCCC4C)C3)sc2n1` (stereo not shown), the “hERG current change (%, negative = inhibition) at 10uM” value stood at 9.32%.
`Cc1cc(N=Cc2c(O)n(-c3cccc(C(F)(F)F)c3)c(=O)c3ccccc23)no1`: the “hERG current change (%, negative = inhibition) at 10uM” value was -0.361%.
`O=[N+]([O-])c1ccc(N2CCN(S(=O)(=O)c3ccccc3)CC2)cc1`: the “hERG current change (%, negative = inhibition) at 10uM” value was -46.9%.
As for `O=C(COc1ccccc1F)Nc1ccc2c(c1)OCCO2`, the figure is 16.8%; as for `CC(C)[C@H](N)c1nnc(SCC(=O)c2ccc(Cl)cc2)o1.Cl`, -14.2%.
Take `CC(=O)OC1N=C(c2ccccc2)c2cc(C)ccc2NC1=O` (stereo not shown): the “hERG current change (%, negative = inhibition) at 10uM” value is -11.5%.
As for `O=C1NC(CCc2ccccc2)C(=O)N1CCOc1ccccc1` (stereo not shown), the figure is 8.06%.
Turning to `Cl.Fc1cccc(Cl)c1CNCCCSc1ncccn1`, the “hERG current change (%, negative = inhibition) at 10uM” value is 1.34%.
`Oc1ccc(Cl)cc1CNc1cccc2cccnc12`: the “hERG current change (%, negative = inhibition) at 10uM” value amounted to 28.3%.
As for `COc1ccccc1CCC(=O)OCC(=O)Nc1ccc2[nH]c(=O)[nH]c2c1`, the figure is 6.56%; as for `O=C(c1ccccc1)c1ccc(C(=O)N2CCN(c3ccc(F)cc3)CC2)o1`, -78.4%; as for `O=C(O)Cn1cc(/C=C2\C(=O)NC(=O)N(c3ccc(Br)cc3)C2=O)c2ccccc21`, 18.2%.
As to `COc1ccccc1Nc1ncnc2sccc12`, the “hERG current change (%, negative = inhibition) at 10uM” value came to 13.3%.
As for `CC(C)C(=O)NCCc1nc2ccccc2n1CCCOc1ccc(Cl)cc1`, the figure is -41.7%; as for `COc1ccc(-c2cc(C(=O)Nc3ccccc3O)c3ccccc3n2)cc1OC`, 5.99%.
As for `C/C=C(/C)C(=O)O[C@@H]1[C@H](OC(=O)C=C(C)C)c2c(ccc3ccc(=O)oc23)OC1(C)C`, the figure is -0.258%; as for `O=C(NCC1CCCO1)c1ccc(CS(=O)(=O)c2c(Cl)cccc2Cl)o1` (stereo not shown), -3.91%.
Consider `COc1ccc(CCCNC(=O)C2CCC(=O)N(CCCN3CCCC3=O)C2)cc1` (stereo not shown), for which the “hERG current change (%, negative = inhibition) at 10uM” value is 18.9%.
Consider `O=C(CN(c1cccc(C(F)(F)F)c1)S(=O)(=O)c1ccc(Cl)c([N+](=O)[O-])c1)NCc1ccccc1Cl`, for which the “hERG current change (%, negative = inhibition) at 10uM” value is recorded as -9.63%.
As for `NC(=O)c1ncn([C@@H]2O[C@H](CO)[C@@H](O)[C@H]2O)n1`, the “hERG current change (%, negative = inhibition) at 10uM” value was found to be 34%.
Regarding `O=C(NCC1CCCO1)C1CC(c2ccc(Cl)c(Cl)c2)=NO1` (stereo not shown), the “hERG current change (%, negative = inhibition) at 10uM” value is recorded as -20.1%.
Take `Cc1cc(C(=O)OCC(=O)N2CCCC2)c2ccccc2n1`: the “hERG current change (%, negative = inhibition) at 10uM” value was -9.04%.
As for `CC(C)(C)NC(=O)C1CC(=O)OC12CCOC(C)(C)C2` (stereo not shown), the figure is 44.4%; as for `COc1ccc(NC(=O)CCN2C(=O)[C@@H]3[C@H](C2=O)[C@H]2C=C[C@@H]3C2)cc1`, 19%; as for `CC1CCN(C(=O)CSc2nc(C3CC3)nc3ccccc23)CC1`, 5.49%.
As for `O=C(N/N=C(\CC(=O)c1cccs1)C(F)(F)F)c1ccncc1`, the figure is 2.66%; as for `COc1cccc(CN2CCNC(=O)C2CC(=O)NC2CCCC2)c1OC` (stereo not shown), 6.35%.
As for `CCOC(=O)C1CCCN(c2c(NCCCN(CC)c3ccccc3)c(=O)c2=O)C1` (stereo not shown), the figure is -47.8%.
Take `CCN1CCN(c2ccc(S(=O)(=O)N3CCOCC3)cc2NC(=O)CC(C)C)CC1`: the “hERG current change (%, negative = inhibition) at 10uM” value is on record as 0.99%.
Regarding `O=C(CSc1n[nH]c(-c2ccncc2)n1)c1ccccc1`, the “hERG current change (%, negative = inhibition) at 10uM” value was determined as 11.7%.
As for `COCCCn1c(=O)c2ccccc2n(CC(=O)NC2CCCCC2)c1=O`, the figure is 20.1%; as for `Cc1nn(CC(=O)O)c(C)c1[N+](=O)[O-]`, 0.246%; as for `O=c1[nH]c(=S)n(-c2cccc(Cl)c2)c(O)c1C=NCCN1CCNCC1`, 8.55%.
As for `CCOc1cc(NC(=O)c2cccs2)c(OCC)cc1NC(=O)CCC(=O)NCc1ccccn1`, the figure is -8.77%.
As for `CNC(=O)CSc1nnc(-c2ccco2)n1-c1cccc(C)c1C`, the figure is 15%; as for `Oc1cccc(Nc2ncnc3ccccc23)c1`, 3.18%; as for `CCNC(=O)COc1ccc(/C=C2\COc3ccccc3C2=O)cc1OC`, -71.8%.
Regarding `CCCn1c(=O)[nH]c(=O)c2c1nc(-c1ccc3c(c1)OCCO3)n2CCN1CCOCC1`, the “hERG current change (%, negative = inhibition) at 10uM” value was -2.05%.
On to `CCOC(=O)CC1CCCCN1C(=O)c1ccc2oc(CCc3ccccc3)nc2c1` (stereo not shown), for which the “hERG current change (%, negative = inhibition) at 10uM” value is recorded as -18%.
As for `CC(C)(C)OC(=O)N1Cc2ccccc2C[C@H]1C(=O)NCC(=O)NC1CCCCC1`, the “hERG current change (%, negative = inhibition) at 10uM” value is 4.83%.
Consider `Cc1ccc(NC(=O)c2cc(N3C(=O)C=CC3=O)ccc2Cl)cc1C`, for which the “hERG current change (%, negative = inhibition) at 10uM” value came to 1.53%.
Turning to `N#CC1=C2Sc3ccccc3N2CCCC1=O`, the “hERG current change (%, negative = inhibition) at 10uM” value is given as -1.25%.
As for `CCOC(=O)Nc1ccc(OCc2nnc3c4ccccc4c(C)nn23)cc1`, the “hERG current change (%, negative = inhibition) at 10uM” value was -1.67%.
On to `COc1ccccc1CNC(=O)CCN=C1NS(=O)(=O)c2ccccc21`, for which the “hERG current change (%, negative = inhibition) at 10uM” value is listed as -18.3%.
For the compound `COc1ccc(OCC(=O)Nc2cccc3ncccc23)cc1`, the “hERG current change (%, negative = inhibition) at 10uM” value is on record as -2.78%.
As for `O=C(COC(=O)/C=C/c1ccc(Cl)c(Cl)c1)NC1CCS(=O)(=O)C1` (stereo not shown), the figure is -6.54%; as for `COc1cc(OC)cc(C(=O)NCc2ccc(-n3cccc3)cc2)c1`, 9.48%; as for `COc1ccc(NC2CCCN(C(=O)CCN3CCCC3=O)C2)cc1` (stereo not shown), 12%.
As to `CC(Nc1nc(-c2cccc(Br)c2)cs1)c1nc2cc(Cl)c(N3CCCCC3)cc2n1CCOCCO` (stereo not shown), the “hERG current change (%, negative = inhibition) at 10uM” value is listed as -19.1%.
